# Results reported in ChEMBL document CHEMBL4888484, “Replenishing the malaria drug discovery pipeline: Screening and hit evaluation of the MMV Hit Generation Library 1 (HGL1) against asexual blood stage Plasmodium falciparum ,using a nano luciferase reporter read-out” (2022).
# Screen size: about 150,000 compounds; about 540 (0.36%) showed an effect of 50% or more. The list shows a part of the results.
# Tested on: Plasmodium falciparum
# Test: Primary screen in NF54 nanoGlo assay, in single point, at 2uM, 72h; a lower Z score goes with more inhibition
# Format: functional, Erythrocyte
# Conditions: timepoint 72 hour
SMILES,% Inhibition,Z score
C#Cc1ccc(COC(=O)c2sc(COC)nc2C)cc1,-20%,2.53
Cc1cc2[nH]c(CN3CCCC[C@H]3c3nccs3)cc(=O)n2n1,1%,-0.22
CN(Cc1nccs1)c1nc(N)nc2c1CCCC2,8%,-1.09
COc1ccnc(-c2ccc(F)c3cccnc23)c1,-4%,0.58
CCN(CCc1nccs1)C(=O)CN1CCCCC1=O,-5%,0.85
Cc1ccc(Cl)cc1N1CCN(C(=O)N2CCC(C)CC2)CC1,0%,-0.01
CCOc1cnc(C(=O)N2C[C@@H]3CCCN3c3ccccc32)cn1,-6%,0.83
Cc1nnc(CC(=O)Nc2cn(CC(C)C)nc2C(F)F)s1,-7%,0.99
COc1ccc(OC)c(N2CCN(C(=O)c3ccc(F)cc3)[C@@H](C)C2=O)c1,-1%,0.17
COc1cccc(NC(=O)CN2C(=O)NC3(CCCCCCC3)C2=O)c1,-13%,1.88
CN(C)Cc1ccccc1C(=O)N[C@H]1CCCn2ncnc21,-7%,1.43
Cc1ccc(CNC(=O)Cn2nc3c4cccc(C)c4ncn3c2=O)cc1,-6%,1.03
CC(=O)[C@@H]1CCCCN1S(=O)(=O)Cc1nocc1C,4%,-0.55
C[C@H]1CNc2c(Nc3ncnc4ccsc34)cnn2C1,6%,-0.83
O=C(O)CN1CCC[C@@H]1CCCc1ccccc1,-4%,0.47
c1nc2nc(C3CC3)cc(NCCN3CCOCC3)n2n1,-11%,2.03
CCOC(=O)c1cc(S(=O)(=O)NCCO)cnc1C(F)(F)F,-8%,1.05
CC(C)COc1ccc(NC(=O)N[C@H]2CC[C@@H](C(=O)O)C2)cn1,-1%,0.11
Cc1cc(NC(=O)N(C)C2CCNCC2)c(Cl)cc1F,-4%,0.79
COCC(C)(C)CN[C@@H](C)C1=Cc2ccccc2OC1,-12%,1.31
CC1CCCC(c2noc(CS(=O)(=O)C3CC3)n2)C1 (centres undefined),3%,-0.45
CC[C@@H](CC#N)NC(=O)c1ccccc1OC1CC1,1%,-0.1

SMILES,% Inhibition,Z score
CC(NCC(=O)Nc1ccnn1C1CCCC1)C(C)n1cccn1 (centres undefined),-17%,1.47
Cc1nc(-c2ccc(C)c(S(=O)(=O)NCC(=O)N3CCCC3)c2)no1,-10%,1.17
CCCN1CCCN(Cc2ccc3ccccc3n2)CC1=O,-16%,2.35
Cc1cc(CN(C)C2CCCCCC2)on1,13%,-1.49
Cc1cccnc1NCCNc1cc([C@H]2C[C@H](N)C2)nc(C2CC2)n1,1%,-0.13
Cc1ccc(C)c(N(C(=O)[C@H]2CCCN(C(=O)c3cccs3)C2)C(C)C)c1,0%,-0.05
O=C(Nc1cc(Cl)cc(Cl)c1)N1CCC2CCNC2C1 (centres undefined),3%,-0.57
Cn1c(CNC(=O)c2cc[n+]([O-])cc2)nc2ccc(F)cc21,2%,-0.37
COc1cc(CN2CCN3C(=O)CNC(=O)[C@@H]3C2)ccc1OCC=C(C)C,-7%,1.41
CN=C(NCc1nc(C)no1)N1CCN(c2cccc(C)c2C)CC1,12%,-1.76
Cc1cnccc1CCNC(=O)NC1CCOC(C(C)(C)C)C1 (centres undefined),-8%,0.77
O=C(Nc1ccc(N2CCOCC2)cc1)C1CCN(c2cnc3nccnc3c2)CC1,-5%,0.91
CC(C)n1ccnc1CN1CCn2nc(CNS(C)(=O)=O)cc2C1,-1%,0.09
O=C(c1ccc2[nH]nnc2n1)N1CCC(F)(c2ccccc2C(F)(F)F)CC1,-12%,1.79
C=CCN(CC#Cc1ccccc1)Cc1ccoc1,2%,-0.25
CCc1n[nH]cc1C(=O)N[C@H]1COCC[C@@H]1OCc1ccccn1,-8%,1.05
CC(C)c1ncc(Cl)c(-c2nc(C(C)(C)NS(C)(=O)=O)no2)n1,9%,-1.13
CCn1cc(CN(C)Cc2cnc(NC[C@H]3CCCO3)nc2)cn1,-3%,0.42
O=C1c2ccccc2C(=O)N1Cc1ccn(C2CCCC2)n1,29%,-3.32
CC(C)(C)c1nnc(C(=O)NCc2ncc(Br)cn2)o1,-3%,0.49
CC[C@H](NC(=O)c1ccn(C)c1C)c1nccs1,-11%,1.17
O=C(Nc1ccc(Cl)c(Cl)c1)N1CCOCC1,3%,-0.41

SMILES,% Inhibition,Z score
COc1cccc(CNC(=O)[C@H](CCC(N)=O)NC(=O)OCc2ccccc2)c1,-1%,0.14
COc1nccnc1NCCn1nc(C)c(C)c1C,-5%,0.77
Cc1cc(NC(=O)N2CCC(O)(c3c(F)cccc3F)CC2)ccn1,-11%,1.12
COCCN1CCCCC[C@H](O)c2cc(C(=O)NCC3CC3)ccc21,1%,-0.11
O=C(N[C@@H]1C[C@H](Cn2cc(C3CC3)nn2)[C@@H](O)[C@H]1O)C1CCOCC1,5%,-0.6
Cc1cc(NC[C@H](C)c2ccccc2)nn1C,-4%,0.43
O=C(CCC1CCCCC1)N1CC(C(F)F)C1,-14%,1.58
Cc1cc(Br)cc(S(=O)(=O)N(C)[C@@H](C)CO)c1,-1%,0.14
O=C1CN(C(=O)[C@H]2CCOC2)CCN1CCc1ccccc1,-18%,1.78
COc1ccc(Nc2nc3c(c(=O)[nH]2)CCC3)cc1,-11%,1.47
C[C@H]1CN(C(=O)c2ccc(O)nc2)CC(C)(C)O1,-10%,1.56
CN(C)[C@@]1(c2ccccc2)CS(=O)(=O)C1(C)C,-5%,0.89
COc1cccc2c1OC[C@@H](C(=O)N(Cc1cnn(C)c1)C1CCCCC1)C2,-2%,0.38
Cn1nc2n(c1=O)C[C@@H](C(=O)N1CCC(CNC(=O)c3ccoc3)CC1)CC2,-5%,0.79
CN(c1ccccc1C(=O)N1CCN(c2ccccc2F)CC1)S(=O)(=O)c1ccccc1,3%,-0.4
COc1ccccc1N1CCN(C[C@@H](O)CC2CCCC2)CC1,-3%,0.25
Cc1cscc1NC(=O)NCC(C)(C)C1CCOCC1,2%,-0.24
NC(=O)CN1CCCN(C(=O)c2cc(Cl)sc2Cl)CC1,-5%,0.78
COc1cc(C)c(-c2cccc(C(=O)N[C@H]3CS(=O)(=O)C[C@@H]3O)c2)cn1,-9%,1.11
CCN(CC)C(=O)c1cnc2ccc(C)cn2c1=O,2%,-0.27
O=C(CNC(=O)c1cccs1)NC1CCCCCCC1,0%,0.06
CC(C)c1nn(-c2ccccc2)c(N(C)C)c1CN(C[C@H]1CCCO1)C(=O)c1ccccc1Cl,-13%,1.16

SMILES,% Inhibition,Z score
c1c[nH]c(Cn2cc(-c3ccc(-c4cc[nH]n4)s3)nn2)n1,-9%,1.58
O=C(NCc1ccc(F)cc1)c1noc(CCn2cncn2)n1,5%,-0.93
CC[C@@H](c1ccccn1)N(C)Cc1coc(C)n1,-8%,1.05
CC1(C)N=C(c2ccc(C(C)(C)C)cc2)C(=O)N1,33%,-1.22
OCCn1ccc([C@H]2CCCN(Cc3ccccc3Cn3cccn3)C2)n1,0%,0.05
CC1(C)C[C@@H]1NC(=O)C1(CF)CCOCC1,-8%,0.8
CC[C@@H](C(=O)N1CCN(c2ccc(NC(=O)c3ccc4c(c3)OCO4)cc2C(=O)N(C)Cc2ccccc2)CC1)c1ccccc1,5%,-0.54
c1cn([C@H]2CCCN(Cc3c[nH]nn3)C2)nn1,2%,-0.34
COCC(C)C(=O)N1CC2CCCC2C1C(N)=O (centres undefined),-6%,1.15
O=C1N(CC2CC2)CCC[C@@]12CCN(S(=O)(=O)c1ccc(F)cc1F)C2,-10%,1
O=C(Nc1ccccc1F)Nc1ccccc1NC(=O)c1ccccc1Cl,4%,-0.43
O=S(=O)(NCc1ccccc1)N1CCC(Nc2ncccn2)CC1,-14%,2.72
CCN=C(NCCCCc1nc(C)cs1)N(C)Cc1cnn(C)c1,-17%,1.51
Cc1cc(C)nc(N2CCN(C(=O)c3coc4ccccc34)CC2)n1,-8%,0.77
Cc1c(C(=O)N2CC[C@@](O)(C3CCOCC3)[C@H](C)C2)n(C)c2c(C)cccc12,-16%,2.09
Cc1c(C(=O)N2CC3CCC2C3)sc2ncc(C(=O)N3CC4CCC3C4)cc12 (centres undefined),-11%,1.79
C=CCC1(OCc2ccccc2)CCN(CCC(=O)N(C)C)CC1,-5%,0.74
CCCn1cc(S(=O)(=O)NCCCc2csc(N)n2)cn1,-2%,0.41
CCOc1cc2sc(N3CCC(C(=O)NCCN(C)C4CCCCC4)CC3)nc2cc1Br,-14%,1.72
CCc1ccc(C(=O)NC2CCN(c3ccccc3C(=O)N3CCc4ccccc4C3)CC2)cc1,-9%,1.54
CC[C@@H](CC#N)NC(=O)c1cc(Cl)cc(F)c1N,-1%,0.07
